Results reported in PubChem BioAssay AID2675 (National Center for Advancing Translational Sciences (NCATS), 2010).
About 100 (0.036%) of roughly 280,000 compounds were called active. The shares of active, inactive and inconclusive entries below differ from those in the screen. Calls come from the whole dose curve; as a rule, active = well fitted inhibition curve with a large enough effect in the signal ratio, with a control signal flat (not every such curve was filed as active); inconclusive = small, poorly fitted or top-dose-only effect, or effect the other way, or a change in a side signal; inactive = no such curve, though single readings can be large or run the other way; the % refers to the signal ratio. Where the call is inconclusive, the potency comes from a doubtful curve fit. “Side channel” marks fits to a control or component signal instead of the main read-out.

What follows are compounds tested against Muscleblind-like protein 1 (Homo sapiens) (UniProt Q9NR56) (assay: qHTS Assay for Inhibitors of MBNL1-poly(CUG) RNA binding). Conditions: TR-FRET MBNL1-His/biotin-(CUG)12 binding, 665/545 ratio; activity change, negative = inhibition: at 57.5 µM (top of the series).
Chain of UniProt Q9NR56 (Q9NR56 whole entry, looked up): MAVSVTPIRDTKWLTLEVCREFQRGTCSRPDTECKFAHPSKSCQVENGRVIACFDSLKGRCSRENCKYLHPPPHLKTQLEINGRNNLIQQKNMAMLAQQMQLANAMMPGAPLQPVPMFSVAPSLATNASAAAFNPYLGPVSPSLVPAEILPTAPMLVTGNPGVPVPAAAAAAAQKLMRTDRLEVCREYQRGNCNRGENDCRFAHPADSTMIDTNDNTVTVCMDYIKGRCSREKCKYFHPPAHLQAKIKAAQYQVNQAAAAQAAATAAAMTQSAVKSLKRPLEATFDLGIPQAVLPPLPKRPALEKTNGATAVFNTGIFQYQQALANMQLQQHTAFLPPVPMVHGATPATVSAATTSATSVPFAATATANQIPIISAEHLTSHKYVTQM
How it was run: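 His-tagged MBNL1 binding to biotinylated (CUG)12 RNA was measured by TR-FRET using terbium anti-His antibody (0.055 ng/ul final) and streptavidin-XL665 (5 nM final). Compounds were titrated 92 nM to 58 uM; 60 min at room temperature.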
% is set by controls: 0 for no effect and ±100 for the full control effect; potency is the fitted concentration of half-maximal effect; tags give direction and shape of the fitted curve or compound fluorescence and quenching.

Compound	Potency	activity change, negative = inhibition
O=C(NCCCn1ccnc1)c1cc2ccccc2oc1=O	inconclusive: 20 µM [quencher, side channel, partial curve]	
COc1ccc(NC(=O)C(Sc2nnc3ccccn23)c2ccccc2)cc1Cl (stereo not given)	inconclusive: 0.1 µM [fluorescent, side channel, full curve, poor fit]	
CNC(=S)Nc1cccc(-c2cnc3ccccc3n2)c1	inconclusive: 10 µM [quencher, side channel, partial curve]	
Cc1ccc(C)c(NC(=S)NCC(c2ccccc2)N(C)C)c1 (stereo not given)	inactive	
Cc1cc(C(=O)OCC(=O)NCCC(C)C)c2ccccc2n1	inconclusive: 39.8 µM [quencher, side channel, single point]	
CC(C)C(=O)Nc1c2c(nn1-c1ccc([N+](=O)[O-])cc1)CS(=O)(=O)C2	inconclusive: 10 µM [quencher, partial curve]	
O=C(Cc1ccc([N+](=O)[O-])cc1)NCc1ccncc1	inconclusive: 31.6 µM [quencher, side channel, single point]	
C=CCNC(=S)N/N=C/c1ccc(C)c([N+](=O)[O-])c1		inactive: 10.2% [at 11.5 µM]
CN1CCC/C1=C/C=C1\SC(=S)NC1=O	inconclusive: 7.94 µM [quencher, side channel, partial curve, poor fit]	
COc1ccccc1-c1c(C)[nH]n2c(=O)c(Cc3ccccc3)c(C)nc12	inactive	
O=c1[nH]c2cc([N+](=O)[O-])c(NCCO)c([N+](=O)[O-])c2[nH]1	inconclusive: 14.1 µM [quencher, side channel, partial curve]	
C=CCNC(=S)N/N=C/c1ccc(OCc2ccccc2)cc1	inconclusive: 14.1 µM [quencher, side channel, partial curve]	
Cc1cc(C)c(Nc2cc(S(=O)(=O)O)c(N)c3c2C(=O)c2ccccc2C3=O)c(C)c1	inconclusive: 39.8 µM [quencher, side channel, partial curve, poor fit]	
CC1(C)Cc2nc3sc(C(N)=O)c(N)c3cc2CO1	inconclusive: 17.8 µM [quencher, side channel, partial curve]	
CCNC(=O)/C(=C/c1cccc([N+](=O)[O-])c1)NC(=O)c1ccc(C)cc1	inconclusive: 35.5 µM [quencher, side channel, partial curve]	
O=C(NCc1cccnc1)c1ccc(CN2CCc3ccccc3C2)cc1	inconclusive: 100 µM [inhibitor, partial curve]	
COc1ccc(CN2CCCC(N3CCN(c4ccc(OC)cc4)CC3)C2)cc1 (stereo not given)	inactive	
CSc1ccc(NC(=O)Nc2ccc(C(=O)NCC(=O)O)cc2)cc1	inconclusive: 158 µM [inhibitor, partial curve]	
O=C1NC2(CCCC2)N=C1c1ccc(F)cc1	inactive	
O=C(CSc1n[nH]c(-c2cccnc2)n1)Nc1ccc([N+](=O)[O-])cc1	inconclusive: 17.8 µM [quencher, partial curve]	

Compound	Potency	activity change, negative = inhibition
Cc1cc(/C=C2/SC(=O)N(CC(=O)N3CCCC3)C2=O)c(C)n1C	inconclusive: 3.55 µM [quencher, side channel, full curve]	
O=C(CCC1CCN(C(=O)c2ccco2)CC1)NCc1ccc(F)cc1	inconclusive: 0.355 µM [quencher, side channel, full curve]	
Cc1cc(C(=O)O)ccc1N=Cc1c(O)ccc2ccccc12	inconclusive: 28.2 µM [quencher, side channel, single point]	
CC(=O)N(C1=C(Cl)C(=O)c2ccccc2C1=O)C1CCCCC1	inconclusive: 20 µM [quencher, side channel, partial curve, poor fit]	
CS(=O)(=O)N1N=C(c2ccccc2)CC1c1ccc2nccnc2c1 (stereo not given)	inconclusive: 39.8 µM [quencher, side channel, single point]	
COCCn1cnc2c(c1=O)c1nc3ccccc3nc1n2/N=C/c1cccc(OC)c1	inconclusive: 4.47 µM [quencher, side channel, partial curve]	
c1ccc(C2Nc3cccc4cccc(c34)N2)cc1	inactive	
COc1ccc(CCn2c(=N)c(C(=O)NCCN3CCOCC3)cc3c(=O)n4cccc(C)c4nc32)cc1OC	inconclusive: 10 µM [quencher, side channel, partial curve]	
O=S(=O)(NCc1ccccc1Br)c1cccs1	inconclusive: 0.631 µM [quencher, side channel, full curve]	
CC(/C=N/NC(=O)c1ccc2nc(C)[nH]c2c1)=C\c1ccccc1	inconclusive: 39.8 µM [quencher, side channel, single point]	
O=C(Cn1cnc(S(=O)(=O)N2CCCCC2)c1)N1CCN(c2ccc([N+](=O)[O-])cc2)CC1	inconclusive: 14.1 µM [quencher, partial curve]	
O=C(O)CCCCn1c(SCc2cc(=O)n3cc(Cl)ccc3n2)nc2ccsc2c1=O	inconclusive: 2 µM [quencher, side channel, partial curve, poor fit]	
CCn1cc(C(=O)OCC(=O)N(C)C2CCS(=O)(=O)C2)c(=O)c2ccc(C)nc21 (stereo not given)	inactive	
Cc1ccc(C(=O)N2CCN(c3ccc(NC(=O)CSc4ccc(Cl)cc4)cc3)CC2)cc1	inactive	
CCSc1ccccc1-c1nc(-c2ccncc2)no1	inactive	
C/C(=N/NC(=O)CNC(=O)c1ccccn1)c1ccccc1	inactive	
O=C(O)c1ccc(-n2ccnc2)c([N+](=O)[O-])c1	inconclusive: 11.2 µM [quencher, side channel, partial curve, poor fit]	
COc1ccc(OC)c(NC(=O)COC(=O)CCCN2C(=O)c3ccccc3C2=O)c1	inconclusive: 39.8 µM [quencher, side channel, single point]	
O=Cc1ccc(-c2nc3ccccc3s2)o1	inconclusive: 28.2 µM [quencher, side channel, partial curve]	
Cc1ccc(C(=O)N2CCC(C(=O)Nc3cccc([N+](=O)[O-])c3)CC2)cc1	inconclusive: 28.2 µM [quencher, partial curve]	

Compound	Potency	activity change, negative = inhibition
Cc1ccc2c(c1)N(CC(=O)NCC1CCCO1)C(=O)C(C(C)C)O2 (stereo not given)	inactive	
CC(C)CCNC(=O)CN(Cc1ccco1)C(=O)c1snc(C(N)=O)c1N	inconclusive: 25.1 µM [quencher, side channel, single point]	
Cc1cc(C=O)c(C)n1-c1ccc(Oc2ccc([N+](=O)[O-])cn2)cc1	inconclusive: 10 µM [quencher, side channel, partial curve]	
CN1C(=O)C(O)(C2OC(C)(C)CCC2=O)c2ccccc21 (stereo not given)	inconclusive: 15.8 µM [quencher, side channel, partial curve]	
O=C(N/N=C/c1cn(-c2ccccc2)nc1-c1cccs1)c1ccc(Cl)cc1	inactive	
COc1ccc(NC(=S)N(CCc2nc3cc(C)c(C)cc3[nH]2)Cc2cccnc2)cc1	inconclusive: 79.4 µM [inhibitor, single point]	
Nc1c(Cl)cc2c(c1Oc1ccccc1)C(=O)c1ccccc1C2=O	inconclusive: 10 µM [quencher, side channel, partial curve]	
COc1cc2c(cc1OC)CN(Cc1nc3ccsc3c(=O)[nH]1)CC2	inconclusive: 35.5 µM [quencher, side channel, single point]	
CCN1CCN(c2oc(-c3ccc([N+](=O)[O-])cc3)nc2C#N)CC1	inconclusive: 2 µM [quencher, side channel, full curve, poor fit]	
C=CCNC(=S)/C(=C(/[O-])c1ccc([N+](=O)[O-])cc1)[n+]1ccccc1	inconclusive: 15.8 µM [quencher, side channel, partial curve]	
CCC(=O)Nc1ccc(Cl)c(NC(=O)c2ccc([N+](=O)[O-])cc2)c1	inconclusive: 1.78 µM [quencher, side channel, full curve, poor fit]	
Cc1ccc(C)c(Nc2cc(C)nc(-c3ccccc3O)n2)c1	inactive	
Oc1ccc(N=Cc2c(O)ccc3ccccc23)cc1	inconclusive: 12.6 µM [quencher, side channel, partial curve]	
COCCNC(=O)c1cc2cc(Cl)cc(Cl)c2oc1=O	inconclusive: 2.82 µM [quencher, single point]	
COCCN=c1scc(-c2cccs2)n1/N=C/c1ccc(O)c(O)c1O	inconclusive: 25.1 µM [activator, partial curve]	
CN1/C(=C\C=C2/SC(=S)N(CC(=O)O)C2=O)C(C)(C)c2ccccc21	inconclusive: 15.8 µM [quencher, side channel, partial curve]	
Cc1ccc(NC(=O)COC(=O)CCNS(=O)(=O)c2ccc(C)c(C)c2)cc1	inconclusive: 0.251 µM [fluorescent, side channel, full curve, poor fit]	
Cc1ccc(C(C)C)c(OCC(=O)Nn2c(=O)[nH]c3ccccc3c2=O)c1	inconclusive: 35.5 µM [quencher, side channel, single point]	
O=C(/C=C/c1ccccc1[N+](=O)[O-])OCC(=O)c1ccccc1	inconclusive: 39.8 µM [quencher, side channel, single point]	
O=C1Nc2ccc(F)cc2C12Nc1ccccc1-c1nnc(SCc3ccccc3Cl)nc1O2 (stereo not given)	inconclusive: 15.8 µM [quencher, side channel, partial curve]	
